Experimental findings from article PMC4336329 (PLoS ONE, 2015) are described below.

Molecules are shown by their SMILES. Out of some 310,000 compounds screened, about 2,200 (0.71%) showed an effect of 50% or more. The effect is printed as a negative number. The list shows a part of the results.

For the assay, the target named is human ether-à-go-go-related gene (hERG) potassium channel (human, UniProt Q12809). Nature of the assay: primary screen, population patch clamp on CHO cells stably expressing hERG.
human ether-à-go-go-related gene (hERG) potassium channel, sequence (Q12809 whole entry, looked up): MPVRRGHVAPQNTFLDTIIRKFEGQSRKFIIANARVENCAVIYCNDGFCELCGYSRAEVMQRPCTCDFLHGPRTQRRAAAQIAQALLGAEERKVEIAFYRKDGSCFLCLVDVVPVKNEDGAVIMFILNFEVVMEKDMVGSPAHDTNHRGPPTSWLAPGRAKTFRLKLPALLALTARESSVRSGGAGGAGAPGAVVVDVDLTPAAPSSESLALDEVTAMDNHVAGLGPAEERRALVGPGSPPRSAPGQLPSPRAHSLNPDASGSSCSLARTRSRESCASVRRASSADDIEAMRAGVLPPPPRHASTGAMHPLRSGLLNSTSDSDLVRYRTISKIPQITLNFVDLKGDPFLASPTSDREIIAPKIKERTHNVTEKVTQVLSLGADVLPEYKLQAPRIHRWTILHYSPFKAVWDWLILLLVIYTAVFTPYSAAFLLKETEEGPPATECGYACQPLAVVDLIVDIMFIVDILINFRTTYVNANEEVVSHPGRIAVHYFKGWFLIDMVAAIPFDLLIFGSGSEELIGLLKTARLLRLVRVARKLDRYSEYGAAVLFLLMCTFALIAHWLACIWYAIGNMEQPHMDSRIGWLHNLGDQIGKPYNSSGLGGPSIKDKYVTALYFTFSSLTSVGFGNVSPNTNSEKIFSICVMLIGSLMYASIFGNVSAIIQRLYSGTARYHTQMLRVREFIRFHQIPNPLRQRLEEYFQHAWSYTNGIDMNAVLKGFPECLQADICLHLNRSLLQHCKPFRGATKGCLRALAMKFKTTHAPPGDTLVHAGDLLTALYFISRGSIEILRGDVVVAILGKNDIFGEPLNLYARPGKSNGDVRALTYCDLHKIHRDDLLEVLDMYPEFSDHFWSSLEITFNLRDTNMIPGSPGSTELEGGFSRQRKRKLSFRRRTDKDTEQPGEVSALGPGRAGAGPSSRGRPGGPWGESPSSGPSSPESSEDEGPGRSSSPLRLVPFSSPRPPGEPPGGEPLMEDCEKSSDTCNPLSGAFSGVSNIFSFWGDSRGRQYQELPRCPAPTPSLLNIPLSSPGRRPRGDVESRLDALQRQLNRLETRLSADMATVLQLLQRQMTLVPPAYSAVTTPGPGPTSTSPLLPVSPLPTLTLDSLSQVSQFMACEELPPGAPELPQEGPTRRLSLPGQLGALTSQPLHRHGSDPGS
As to `O=C1c2ccccc2C(=O)N1Nc1ccccc1`, the “hERG current change (%, negative = inhibition) at 1uM” value is given as 2.53%.

For the compound `CCN(CC)S(=O)(=O)c1ccc(C)c(NC(=O)/C=C/c2cccs2)c1`, the “hERG current change (%, negative = inhibition) at 1uM” value turned out to be 8.76%.

On to `CCOC(=O)c1ccc(NC(=O)CN2C(=O)CN(C(C)=O)C2=S)cc1`, for which the “hERG current change (%, negative = inhibition) at 1uM” value was 12.5%.

In the case of `CC(C)CCNC(=O)C(Cc1ccccc1)NS(=O)(=O)c1ccc2c(c1)c(=O)n(C)c(=O)n2C` (centres unmarked), the “hERG current change (%, negative = inhibition) at 1uM” value is recorded as 5%.

On to `Clc1ccc(Cn2cc(/C=N/n3cnnc3)c3ccccc32)c(Cl)c1`, for which the “hERG current change (%, negative = inhibition) at 1uM” value is given as 13.1%.

For the compound `Cc1ccc(C(=O)Nc2nccs2)cc1S(=O)(=O)N1CCCCC1`, the “hERG current change (%, negative = inhibition) at 1uM” value came to 6.61%.

As for `Cc1c(Cl)cccc1NC(=O)CNc1ccccc1F`, the “hERG current change (%, negative = inhibition) at 1uM” value was 11%.

On to `COc1ccc([C@@H]2[C@@H]3C(=O)N(C(C)(C)C)C(=O)[C@@H]3[C@]3(Cc4ccccc4)C(=O)N(c4cccc(Cl)c4)C(=O)N23)cc1`, for which the “hERG current change (%, negative = inhibition) at 1uM” value stood at 6.54%.

With `CNC(=S)NNC(=O)c1cccn(Cc2cccc(Cl)c2)c1=O`, the “hERG current change (%, negative = inhibition) at 1uM” value is recorded as 1.16%.

Take `O=C(COc1ccc(Cl)cc1Cl)Nc1ccccn1`: the “hERG current change (%, negative = inhibition) at 1uM” value was 5.15%.

For `Cc1ccc(COc2ccc(Br)cc2/C=N/O)cc1`, the “hERG current change (%, negative = inhibition) at 1uM” value was found to be 14.8%.

For `COc1ccc(N2CCN(c3nc(NCCO)nc(N4CCOCC4)n3)CC2)cc1`, the “hERG current change (%, negative = inhibition) at 1uM” value amounted to 9.27%.

Turning to `CCCCC(CC)C1OCC(CN2CCCC2)O1` (centres unmarked), the “hERG current change (%, negative = inhibition) at 1uM” value was 8.83%.

Turning to `O=C(NNC1=NCCCCC1)c1cccc([N+](=O)[O-])c1`, the “hERG current change (%, negative = inhibition) at 1uM” value worked out at 8.3%.

For the compound `CC[C@H](C)NC(=O)CCCCCn1c(=S)[nH]c2c([nH]c3ccc(OC)cc32)c1=O`, the “hERG current change (%, negative = inhibition) at 1uM” value amounted to 35.6%.

Consider `CCC(C)C(NC(N)=O)C(=O)NC1CCC(C)CC1` (centres unmarked), for which the “hERG current change (%, negative = inhibition) at 1uM” value is reported as 6.83%.

Take `S=C(NCc1ccccc1)N1CCc2ccccc2C1`: the “hERG current change (%, negative = inhibition) at 1uM” value came to 6.13%.

`Cc1ccc(S(=O)(=O)N2CCCCC2)cc1NC(=O)COC(=O)C1(C)CC1(Cl)Cl` (centres unmarked): the “hERG current change (%, negative = inhibition) at 1uM” value is on record as -2.48%.

Regarding `CCOC(=O)C1CCN(C(=O)COC(=O)CNC(=O)c2ccc(OC)cc2)CC1`, the “hERG current change (%, negative = inhibition) at 1uM” value was 10.2%.

For `Cc1ccc(S(=O)(=O)N2CCCN(S(=O)(=O)c3ccc(C)c(C)c3)CC2)cc1C`, the “hERG current change (%, negative = inhibition) at 1uM” value is listed as -0.269%.

Turning to `COc1ccccc1C(=O)Nc1nnc(SCC(=O)NCc2ccco2)s1`, the “hERG current change (%, negative = inhibition) at 1uM” value is 9.17%.

With `Nc1c(Cl)cc(C2=NCCn3nc4cc(C(F)(F)F)ccc4c32)cc1Cl`, the “hERG current change (%, negative = inhibition) at 1uM” value was 18.6%.

In the case of `Cc1nnc(SCC(=O)NCc2ccccc2)[nH]c1=O`, the “hERG current change (%, negative = inhibition) at 1uM” value was -9.23%.

In the case of `NC(=O)c1c(NC(=O)C(=O)N2CCOCC2)sc2c1CCCC2`, the “hERG current change (%, negative = inhibition) at 1uM” value was 18.8%.

As for `C=C1[C@@H](OC(C)=O)[C@]23C[C@@H]1[C@@H](OC(C)=O)CC2[C@]12C4C[C@H]3[C@H]1N(CC)C[C@]4(C)CC[C@@H]2O` (some centres unmarked), the “hERG current change (%, negative = inhibition) at 1uM” value is -10%.

For `Cc1ccc([N+](=O)[O-])c(OCCCN2CCC(Cc3ccccc3)CC2)c1.O=C(O)C(=O)O`, the “hERG current change (%, negative = inhibition) at 1uM” value is reported as -95.8%.

Regarding `FC(F)(F)c1ccccc1CCN1CCNCC1`, the “hERG current change (%, negative = inhibition) at 1uM” value turned out to be 18.3%.

`O=C(CSc1cccc[n+]1[O-])c1ccc(-c2ccccc2)cc1`: the “hERG current change (%, negative = inhibition) at 1uM” value turned out to be 11.4%.

`O=S(=O)(NCCOc1ccccc1)c1ccc2ccccc2c1`: the “hERG current change (%, negative = inhibition) at 1uM” value worked out at 16%.

Regarding `CC(C)(C)C(=O)NCCc1nc2ccccc2n1CC(=O)c1ccc(Cl)cc1`, the “hERG current change (%, negative = inhibition) at 1uM” value is reported as -2.26%.

Consider `Cc1ccc(NC(NC(=O)c2ccccn2)C(Cl)(Cl)Cl)cc1` (centres unmarked), for which the “hERG current change (%, negative = inhibition) at 1uM” value is listed as -2.99%.

Turning to `N#C/C(=C\c1cn(CCOc2ccccc2)c2ccccc12)C(=O)NCc1cccs1`, the “hERG current change (%, negative = inhibition) at 1uM” value was found to be 0.228%.

Turning to `CS(=O)(=O)c1ccc(Oc2ccc(-c3nnco3)cc2)c([N+](=O)[O-])c1`, the “hERG current change (%, negative = inhibition) at 1uM” value was 13.9%.

Regarding `Cc1ccc(C)c(S(=O)(=O)NCc2ccc(C(=O)N3CCCCC3C)cc2)c1` (centres unmarked), the “hERG current change (%, negative = inhibition) at 1uM” value was -0.97%.

Take `Cc1ccc(CNC(=O)c2ccc3c(c2)NC(=O)CS3)cc1`: the “hERG current change (%, negative = inhibition) at 1uM” value is reported as 4.9%.

Take `CN(c1cccc(NC(=O)COc2ccc(Cl)cc2Cl)c1)S(C)(=O)=O`: the “hERG current change (%, negative = inhibition) at 1uM” value is reported as 1.5%.

Consider `CCn1c(N2CCN(C(=O)/C=C/c3ccccc3)CC2)nc2ccccc21`, for which the “hERG current change (%, negative = inhibition) at 1uM” value is reported as -77.4%.

For the compound `COCCCNC(=O)CSc1nc2ccccc2c(=O)n1CCCC(=O)NCC1CCCO1` (centres unmarked), the “hERG current change (%, negative = inhibition) at 1uM” value is reported as -1.22%.

Turning to `CCN(CC)S(=O)(=O)c1cc(C(=O)n2cccn2)c(Cl)cc1Cl`, the “hERG current change (%, negative = inhibition) at 1uM” value amounted to 0.829%.

On to `CNC(=S)NNC(=O)c1ccc(=O)n(Cc2cccc(C(F)(F)F)c2)c1`, for which the “hERG current change (%, negative = inhibition) at 1uM” value amounted to 10.5%.

In the case of `O=C(c1ccccc1-c1nc2ccccc2[nH]1)N1CCCCC1`, the “hERG current change (%, negative = inhibition) at 1uM” value stood at 8.35%.

Turning to `COc1cccc(C(=O)Nc2cc(S(=O)(=O)N3CCCCC3)ccc2OC)c1`, the “hERG current change (%, negative = inhibition) at 1uM” value is given as 8.89%.

Consider `CC(Sc1nc2ccccc2s1)C(=O)NC1CCCc2ccccc21` (centres unmarked), for which the “hERG current change (%, negative = inhibition) at 1uM” value is reported as 11.5%.

Turning to `CS(=O)(=O)N1CCc2nc(-c3ccccc3)sc2C1`, the “hERG current change (%, negative = inhibition) at 1uM” value amounted to 6.34%.

Consider `Nc1ccc(S(=O)(=O)c2ccc(N)cc2)cc1`, for which the “hERG current change (%, negative = inhibition) at 1uM” value amounted to 10%.

Consider `CC1=C[C@@H](C)[C@@H](c2ccc(C(F)(F)F)cc2)OC1=O`, for which the “hERG current change (%, negative = inhibition) at 1uM” value was 7.95%.

With `CCN(CC)CCCNC(=O)c1nn(-c2cccc(OC)c2)c(=O)c2ccccc12`, the “hERG current change (%, negative = inhibition) at 1uM” value is reported as -66.9%.

On to `CCC(=O)N1c2ccc(S(=O)(=O)N3CCN(CC)CC3)cc2CC1C` (centres unmarked), for which the “hERG current change (%, negative = inhibition) at 1uM” value is on record as 9.77%.

As for `CSCCC(=O)N1CCCC(CNC(=O)c2ccc(-c3ccccc3)cc2)C1` (centres unmarked), the “hERG current change (%, negative = inhibition) at 1uM” value was -4.38%.

Take `O=C(O)CN1C(=O)/C(=C\c2ccc(OC(=O)c3ccco3)cc2)SC1=S`: the “hERG current change (%, negative = inhibition) at 1uM” value is 9.37%.

For the compound `S=c1[nH]nc(-c2cccnc2)o1`, the “hERG current change (%, negative = inhibition) at 1uM” value is 16.6%.

As for `CCCNS(=O)(=O)c1ccc(CCC(=O)Nc2ccc3c(c2)OCCO3)cc1`, the “hERG current change (%, negative = inhibition) at 1uM” value is reported as -2.55%.

In the case of `CCOC(=O)c1ccc(N2C(=O)CC(Nc3ccc(CCO)cc3)C2=O)cc1` (centres unmarked), the “hERG current change (%, negative = inhibition) at 1uM” value is -13.5%.

With `CCN1CCN(C(=S)NCCOC)CC1.O=C(O)C(=O)O`, the “hERG current change (%, negative = inhibition) at 1uM” value amounted to 7.54%.

For the compound `COc1ccccc1/C=C/C(=O)Nc1nc(N)n(-c2ccccc2)n1`, the “hERG current change (%, negative = inhibition) at 1uM” value was determined as 0.173%.

As for `O=C(CCc1ccccc1)NCCc1nc2ccccc2[nH]1`, the “hERG current change (%, negative = inhibition) at 1uM” value amounted to 9.75%.
